Measured values taken from publication PMC6445129.
Results are given in words; binding and its absence hold for the method and conditions named. Some results given as binding are weak or reduced against the parent protein; the word gives no strength. Tags and fused reporters may be left off the sequences shown.

Amino acid sequences for entries named in this document (tags omitted).
UniProt P13010: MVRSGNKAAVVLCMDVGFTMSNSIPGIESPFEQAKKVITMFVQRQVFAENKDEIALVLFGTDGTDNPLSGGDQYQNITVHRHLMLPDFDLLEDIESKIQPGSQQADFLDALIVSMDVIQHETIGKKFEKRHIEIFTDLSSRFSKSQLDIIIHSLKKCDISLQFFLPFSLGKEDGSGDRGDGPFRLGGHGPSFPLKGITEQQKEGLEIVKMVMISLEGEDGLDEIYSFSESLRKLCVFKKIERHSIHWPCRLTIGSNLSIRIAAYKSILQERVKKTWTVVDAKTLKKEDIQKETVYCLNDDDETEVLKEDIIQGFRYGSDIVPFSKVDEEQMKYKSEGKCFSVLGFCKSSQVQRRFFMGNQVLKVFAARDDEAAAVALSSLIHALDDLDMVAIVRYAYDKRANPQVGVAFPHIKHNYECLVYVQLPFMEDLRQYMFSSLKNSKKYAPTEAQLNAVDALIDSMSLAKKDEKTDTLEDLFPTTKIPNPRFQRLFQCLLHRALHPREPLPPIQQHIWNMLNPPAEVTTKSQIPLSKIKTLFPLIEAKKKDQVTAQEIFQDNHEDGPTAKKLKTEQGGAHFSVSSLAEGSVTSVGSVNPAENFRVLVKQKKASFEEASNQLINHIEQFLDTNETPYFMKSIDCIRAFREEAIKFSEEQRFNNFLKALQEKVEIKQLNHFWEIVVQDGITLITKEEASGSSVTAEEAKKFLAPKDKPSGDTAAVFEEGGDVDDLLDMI
UniProt P12956: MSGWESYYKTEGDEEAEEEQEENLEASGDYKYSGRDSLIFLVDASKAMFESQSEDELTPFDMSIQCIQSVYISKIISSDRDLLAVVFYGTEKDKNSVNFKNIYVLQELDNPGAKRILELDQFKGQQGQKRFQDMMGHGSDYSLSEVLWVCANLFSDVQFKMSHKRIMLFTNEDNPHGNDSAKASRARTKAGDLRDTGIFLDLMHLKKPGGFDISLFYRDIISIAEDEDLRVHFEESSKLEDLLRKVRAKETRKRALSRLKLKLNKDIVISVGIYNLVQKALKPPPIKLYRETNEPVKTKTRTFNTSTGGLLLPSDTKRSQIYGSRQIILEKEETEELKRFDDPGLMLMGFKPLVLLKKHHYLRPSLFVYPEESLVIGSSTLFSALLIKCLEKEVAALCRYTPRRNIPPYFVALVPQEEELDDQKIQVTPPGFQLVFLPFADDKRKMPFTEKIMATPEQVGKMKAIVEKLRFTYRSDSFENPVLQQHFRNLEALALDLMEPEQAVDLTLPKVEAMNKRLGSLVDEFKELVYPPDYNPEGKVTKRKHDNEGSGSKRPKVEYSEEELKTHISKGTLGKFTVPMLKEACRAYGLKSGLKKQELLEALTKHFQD

B1: GST-CXXC-NLSR (domain or fragment, UniProt Q9Y2K7 561-619; Q9Y2K7 676-733)
chain: VSGARRRRVRCRKCKACVQGECGVCHYCRDMKKFGGPGRMKQSCVLRQCLAPRLPHSVTYQEDSSEKAQKRKMEESDEEAVQAKVLRPLRSCDEPLTPPPHSPTSMLQLIHDPVSPR
B2: GST-CXXC-PHD-NLSR (domain or fragment, UniProt Q9Y2K7 561-733)
chain: VSGARRRRVRCRKCKACVQGECGVCHYCRDMKKFGGPGRMKQSCVLRQCLAPRLPHSVTCSLCGEVDQNEETQDFEKKLMECCICNEIVHPGCLQMDGEGLLNEELPNCWECPKCYQEDSSEKAQKRKMEESDEEAVQAKVLRPLRSCDEPLTPPPHSPTSMLQLIHDPVSPR
B3: GST-PHD-NLSR (domain or fragment, UniProt Q9Y2K7 619-733)
chain: TCSLCGEVDQNEETQDFEKKLMECCICNEIVHPGCLQMDGEGLLNEELPNCWECPKCYQEDSSEKAQKRKMEESDEEAVQAKVLRPLRSCDEPLTPPPHSPTSMLQLIHDPVSPR
B4: GST-NLSR (domain or fragment, UniProt Q9Y2K7 676-733)
chain: YQEDSSEKAQKRKMEESDEEAVQAKVLRPLRSCDEPLTPPPHSPTSMLQLIHDPVSPR

Each binder was assayed against XRCC5 expressed in E. coli (human) (UniProt P13010) (assay: far-Western, overlay or dot blot; XRCC5 and XRCC6 from E. coli particulate fractions resolved by SDS-PAGE, immobilised on nitrocellulose and renatured; probed 2 h at room temperature in HEPES buffer, 150 mM NaCl, 1% non-fat milk with bacterial extracts holding the GST probes; detected with goat anti-GST).
In the case of B1, the binding is reported as “binds weakly”. For B2, the binding was “binds weakly”. In the case of B3, the binding is reported as “binds weakly”.

These binders were tested against XRCC6 expressed in E. coli (human) (UniProt P12956) in the same assay as above.
B1 was tested, and the binding was “binds”. B2 was tested, and the binding was “binds”. For B3, the binding was “no binding”. For B4, the binding was “no binding”.
